Measurements: PubChem BioAssay AID488969 (Vanderbilt High Throughput Screening Facility, 2010)
The full ranking holds about 110,000 compounds; the median of “z-score” is about -0.1, and the highest 2% start at about 2. This is one part of the list. Active and inactive are the calls of the source.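 Rule for the calls: active = z-score in the third read window above 3 or below -3; inactive = the rest.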 Non-standard residues stand in square brackets, D forms with d. Residues, ends and D or L forms follow the SMILES beside them. ξ: configuration not given here. *: point of attachment. Boc = CC(C)(C)OC(=O)*; ξP = O=C(O)C1CCCN1

Biological target: Metabotropic glutamate receptor 8 (Rattus norvegicus) (UniProt P70579)
Chain of UniProt P70579 (P70579 whole entry, looked up): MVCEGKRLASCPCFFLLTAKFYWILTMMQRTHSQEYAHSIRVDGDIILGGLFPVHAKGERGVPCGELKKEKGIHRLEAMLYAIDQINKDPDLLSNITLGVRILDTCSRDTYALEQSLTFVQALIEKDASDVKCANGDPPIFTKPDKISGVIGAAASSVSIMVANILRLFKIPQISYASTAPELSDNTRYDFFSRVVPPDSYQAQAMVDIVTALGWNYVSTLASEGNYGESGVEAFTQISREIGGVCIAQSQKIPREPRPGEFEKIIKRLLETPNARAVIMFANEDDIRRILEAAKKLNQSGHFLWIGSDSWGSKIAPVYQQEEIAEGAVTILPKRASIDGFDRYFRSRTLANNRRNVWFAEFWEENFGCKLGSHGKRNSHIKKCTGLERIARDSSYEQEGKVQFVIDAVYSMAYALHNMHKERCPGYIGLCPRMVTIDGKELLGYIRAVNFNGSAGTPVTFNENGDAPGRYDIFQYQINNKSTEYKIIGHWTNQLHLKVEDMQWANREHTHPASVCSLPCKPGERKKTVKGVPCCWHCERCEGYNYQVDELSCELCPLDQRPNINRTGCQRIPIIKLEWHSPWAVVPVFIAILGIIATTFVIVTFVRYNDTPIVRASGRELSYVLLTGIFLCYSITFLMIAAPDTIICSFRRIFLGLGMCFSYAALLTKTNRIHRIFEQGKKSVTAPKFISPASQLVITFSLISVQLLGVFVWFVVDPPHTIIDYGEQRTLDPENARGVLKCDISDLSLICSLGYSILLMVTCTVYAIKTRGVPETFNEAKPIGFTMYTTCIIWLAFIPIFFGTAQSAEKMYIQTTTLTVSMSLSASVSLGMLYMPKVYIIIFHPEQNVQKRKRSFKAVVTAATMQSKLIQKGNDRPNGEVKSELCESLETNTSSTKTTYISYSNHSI
Test: rat mGluR8 modulators via GIRK flux, primary screen, cell-based, thallium flux, HTS (AID 488969)
Details: HEK293 rat mGluR8, GIRK (G protein-gated inwardly rectifying potassium channel) thallium flux, FluoZin2; at 10 µM; stronger effect = higher value; submaximal glutamate (EC20) added with thallium

Row | SMILES | z-score
1 | COC(=O)Nc1ncc(CN2C(=O)c3ccccc3C2=O)s1 | 0.027
2 | COc1ccc(C(=O)NCc2ccc(-c3nc4ccccc4s3)cc2)cc1OC | -0.436
3 | CN1CCN(C(=O)C2CC(c3c(F)cccc3Cl)=NO2)CC1 (stereo not given) | 0.348
4 | CCS(=O)(=O)N1CCCC(C(=O)NCc2cccc(OC)c2)C1 (stereo not given) | -0.018
5 | O=C(NC1CCCC1)C1CC(=O)N(CCc2ccccc2)C1 (stereo not given) | -1.38
6 | NC(=O)C1CCN(CC(=O)Nc2cccc(C(=O)Nc3cccc(C(F)(F)F)c3)c2)CC1 | -0.137
7 | COc1cc(/C=N/NC(=O)c2cnn3c(C)cc(-c4ccccc4)nc23)ccc1O | -0.354
8 | COc1ccc(NC(=O)CN(c2cccc(F)c2)S(C)(=O)=O)cc1OC | 0.437
9 | COC(=O)CNC(=O)C1CCCN1C(=O)OC(C)(C)C (stereo not given) (Boc-[ξP]-Gly-OMe) | -0.536
10 | CC1(C)C2([N+](=O)[O-])CN3CC1([N+](=O)[O-])CN(C2)C3c1ccccc1 (stereo not given) | -0.289
11 | Cc1c(C(=O)NCc2ccccc2)cnn1-c1ccccc1 | 1.21
12 | O=C(O)C1CCCCC1C(=O)NCCc1cccc(Cl)c1 (stereo not given) | 1.2
13 | CCOC(=O)C1C(=O)C=C(c2cccc(NS(C)(=O)=O)c2)CC1c1ccco1 (stereo not given) | -0.737
14 | CCN(c1cccc(C)c1)S(=O)(=O)c1c(C)[nH]c(=O)[nH]c1=O | -0.335
15 | Cc1ccc(C)c(NC(=O)c2cc(-c3ccccc3)nn2-c2ccccc2)c1 | 2.08
16 | Cc1cc(NC(=O)c2cc(-c3cccc(Cl)c3)on2)no1 | -0.0393
17 | COCCn1nnnc1CN(CCc1ccccc1)Cc1cc2cc(OC)ccc2[nH]c1=O | -0.649
18 | Cc1ccc(-n2c(C)nn(-c3ncc(C(F)(F)F)cc3Cl)c2=O)cc1 | -0.113
19 | Cc1c(Cl)cccc1NC(=S)NC(=O)CCN1C(=O)c2ccccc2C1=O | 0.227
20 | C=CCn1c(-c2ccccc2)nc(=S)c2c1CC(C)(C)OC2 | 0.225
21 | COc1ccccc1NC(=S)N(Cc1ccccc1)Cc1ccccn1 | -1.17
22 | Cc1ccc(Cc2cnc(N)s2)o1 | -0.129

Row | SMILES | z-score
23 | CCC(NC(=O)c1ccccc1NC(=O)c1ccccc1)C(=O)NNC(=O)CSc1nc2ccccc2o1 (stereo not given) | 0.033
24 | COc1cccc(N2CCN(Cc3nc4ccccc4c(=O)[nH]3)CC2)c1 | 0.494
25 | CCc1nc(SCC(=O)NCCc2ccc(OC)c(OC)c2)c2c(=O)n(C)c(=O)n(C)c2n1 | 0.573
26 | Oc1ccc(-n2cnnn2)cc1 | 0.0713
27 | O=C(CSc1nnc(-c2ccc(Cl)s2)o1)N1CCCc2ccccc21 | -0.616
28 | COc1ccc(CC(=O)O/N=C(\N)c2cccc([N+](=O)[O-])c2)cc1 | -0.132
29 | CCOc1ccc(Nc2oc(-c3cccs3)nc2C#N)cc1 | -0.22
30 | O=C(NCc1n[nH]c(=S)n1-c1ccccc1)c1ccc(S(=O)(=O)N2CCOCC2)cc1 | -0.00498
31 | N#CCC1c2ccccc2CCN1C(=O)Nc1ccc(Cl)cc1 (stereo not given) | -1.47
32 | Cc1occc1C(=O)Nc1ccc(S(=O)(=O)N2CCN(C)CC2)cc1 | -0.575
33 | Cc1ccc(NC(=O)Cn2cnc3c(=O)n(C)c(=O)n(C)c32)c(C)c1 | 0.389
34 | CCOC(=O)C1CCN(c2c(NC3CCCCCCC3)c(=O)c2=O)CC1 | 0.385
35 | CNS(=O)(=O)c1cccc2cccnc12 | -0.0836
36 | CC1(C)CC(=O)C(C(c2ccco2)C2C(=O)CC(C)(C)CC2=O)C(=O)C1 | 0.141
37 | O=C(Nc1cccc(Cl)c1)Nc1nccs1 | active: 10.2
38 | Cc1cc(C)cc(NC(=S)NCCSc2ccc(Cl)cc2)c1 | -0.14
39 | COc1ccc(CN2C(=O)CC(Cc3cc(C)cc(C)c3)C2=O)cc1OC (stereo not given) | -0.385
40 | COc1ccccc1-c1coc2cc(OCC(=O)OCc3ccccc3)ccc2c1=O | -1.07
41 | COc1cccc(NC(=O)CCC(=O)Nc2cccc(OC)c2)c1 | -0.279
42 | CCOCC(=O)Nc1nnc(C)s1 | 1.02
43 | CC1CN(S(=O)(=O)c2cccc(C(=O)OCC(=O)c3cccs3)c2)CC(C)O1 (stereo not given) | -0.116
44 | O=C(Cn1cc2c(n1)CCCCC2)NC1CCN(Cc2ccccc2)CC1 | -0.259

Row | SMILES | z-score
45 | Cc1ccccc1N(CC(=O)NCCSCc1ccco1)S(C)(=O)=O | 0.0968
46 | CCn1cc(/C=N/NC(=O)c2cc3c(ccc4ccccc43)o2)c2ccccc21 | 0.446
47 | OCCN(CCO)CC(O)COCCC12CC3CC(CC(C3)C1)C2 (stereo not given) | 0.239
48 | COc1ccccc1CN(Cc1nc2ccccc2c(=O)[nH]1)C(=O)Nc1ccc(C)cc1 | -0.132
49 | CCOC(=O)CSc1nc2cc3c(cc2cc1CC)OCCO3 | -0.224
50 | CC1(N2CCOCC2)C(=O)c2ccccc2C1=O | -0.0718
51 | CC(Sc1nc2ccccc2[nH]1)C(=O)O (stereo not given) | -0.0631
52 | Cc1cc(Nc2ccccc2N2CCOCC2)n2ncnc2n1 | 0.119
53 | O=C(c1cc2sccc2n1Cc1ccccc1)N1CCc2ccccc21 | -1.27
54 | CCN(C(=O)Cc1ccccc1OC)c1nnc(-c2ccncc2)s1 | -0.0685
55 | Cc1ccnc(N2C(=O)c3ccccc3C2O)c1 (stereo not given) | -0.243
56 | O=C(c1ccco1)c1n[nH]nc1-c1ccccc1 | -0.0134
57 | COc1ccc(C(C#N)N2N=C(c3ccccc3)CC2c2ccccc2)cc1OC (stereo not given) | 0.0225
58 | O=C(c1cc(-c2ccccc2)on1)N1CCCC1 | active: 3.32
59 | CCOC(=O)c1c(C)[nH]c(C=Nc2ccccc2)c1O | 0.401
60 | COc1cc(C2C(C#N)=C(N)Oc3cc(C)oc(=O)c32)cc2c1OCO2 (stereo not given) | 0.102
61 | CCOc1ccc(/C=N/Nc2cc(=O)n(C)c(=O)n2C)cc1 | -0.091
62 | Cc1ccccc1/C=N/N1CCN(c2ccccc2)CC1 | -0.218
63 | CN(C)CC1CCCCC1C1(O)c2ccccc2CSc2sccc21 (stereo not given) | 1.47
64 | FC(F)(F)c1nc(-c2cccnc2)ncc1-c1nnnn1-c1ccccc1 | -0.145
65 | O=C(CSc1ncccn1)n1c2c(c3ccccc31)CCCC2 | -0.0215
66 | O=C(COC(=O)C12CC3CC(CC(O)(C3)C1)C2)N1CCN(S(=O)(=O)c2ccc(Cl)cc2)CC1 | -0.0539

Row | SMILES | z-score
67 | C=CCc1cccc(Cl)c1OCCON1C(=O)CCC1=O | -0.121
68 | CCc1ccccc1NC(=O)COc1ccc2oc(-c3ccc(OC)cc3)cc(=O)c2c1 | 0.154
69 | Nc1cccc(-n2nncc2-c2ccccc2)c1 | -0.207
70 | C=CCn1c(NC(C)c2cc(Cl)ccc2O)nc2ccccc21 (stereo not given) | 0.902
71 | CC(=O)N1CCc2cc(Br)cc(S(=O)(=O)NCCCN3CCCC(C)C3)c21 (stereo not given) | 0.264
72 | CC(C)(C#N)Nc1ccccc1 | -0.145
73 | CCOC(=O)C1CCCN(c2c(NCC3CCCN3CC)c(=O)c2=O)C1 (stereo not given) | -0.227
74 | NS(=O)(=O)c1ccc(NCc2ccccc2OCc2ccccc2F)cc1 | -0.136
75 | O=C(CCCn1c(=S)[nH]c2cc3c(cc2c1=O)OCO3)N1CCN(c2ccccn2)CC1 | -0.0689
76 | CC1=C(C(=O)Nc2ccccc2)C(c2ccc(C)o2)n2c(s/c(=C/c3ccccc3)c2=O)=N1 (stereo not given) | 0.641
77 | COc1ccc(-c2cc(C(F)(F)F)nc(SCC(=O)NCc3cccs3)n2)cc1OC | 0.0226
78 | COc1ccccc1N1CCN(C2CCN(S(=O)(=O)c3ccc4ccccc4c3)CC2)CC1 | 0.0593
79 | COc1ccc(/C=N/NC(=O)CN2CCSCC2)cc1C | 1.85
80 | CC(C)C(=O)Nc1ccc(C(=O)NNC(=O)NC2CCCCC2)cc1 | -0.0237
81 | COc1ccc(C(C)=O)cc1CSc1nnc(Nc2ccccc2C)s1 | -0.517
82 | COC(=O)c1ccc(COc2ccccc2/C=C(\C#N)C(=O)Nc2c(C)cc(C)cc2C)cc1 | -0.309
83 | COc1ccc(NC(=O)C2CCCN2S(=O)(=O)c2ccc3c(c2)CCC(=O)N3)c(OC)c1 (stereo not given) | -0.178
84 | CN(C)C(=O)N1CCCC(C(=O)NCc2ccccc2)C1 (stereo not given) | -0.341
85 | CC(C)CNC(=O)COc1ccccc1[N+](=O)[O-] | -0.162
86 | CNS(=O)(=O)c1cnccc1N1CCN(c2cccc(C(F)(F)F)c2)CC1 | 0.784
87 | CCc1nc(N2CCC(C)CC2)c2oc3ccccc3c2n1 | 0.225
88 | COc1ccc(-c2cc3nc(C)cc(N4CC(C)CC(C)C4)n3n2)cc1 (stereo not given) | 0.175

Row | SMILES | z-score
89 | Cc1ccc(Cn2nnc3c(=O)n(CC(=O)NCc4ccc5c(c4)OCO5)cnc32)cc1 | -0.756
90 | CC(C)c1ccc(OCC(=O)N(Cc2ccccc2)c2ccccn2)cc1 | -0.499
91 | CC(=O)N1c2ccccc2N(Cc2ccc(C)cc2C)C(=O)C1(C)C | -1.56
92 | O=C(CNC(=O)Cn1ccc2ccccc2c1=O)NCCCN1CCN(c2cccc(Cl)c2)CC1 | 0.155
93 | CC(C)P(=O)(Cc1cccc(C#N)c1)C(C)C | -0.151
94 | CCCCCCn1c(SCC(=O)Nc2cc(C)on2)nc2ccccc2c1=O | -1.23
95 | COc1ccc(-n2nc(C(=O)NCC(=O)Nc3ccccn3)c3ccccc3c2=O)cc1 | -0.21
96 | COc1ccccc1-c1cc(C(F)(F)F)nc(S(=O)(=O)CCCC(=O)Nc2cc(C)on2)n1 | 0.601
97 | CCc1ccc(N2CC(C(=O)N/N=C/c3cccc([N+](=O)[O-])c3)CC2=O)cc1 (stereo not given) | -0.401
98 | CCOc1ccccc1OCC(=O)Nc1ccc(S(=O)(=O)Nc2ncccn2)cc1 | -4.8e-05
99 | CCN(c1ccc(OCC(=O)OCC(=O)Nc2ccc(F)c(F)c2F)cc1)S(=O)(=O)c1ccccc1 | -0.229
100 | Cn1cnc([N+](=O)[O-])c1Oc1ccc2ccccc2c1 | 0.154
101 | CN1CCN(c2ccc([N+](=O)[O-])cc2NC(=O)c2ccccc2Cl)CC1 | -0.38
102 | Cc1nonc1NC(=O)CSc1nnc(-c2ccoc2C)n1-c1cccc(Cl)c1 | -2.81
103 | Cc1noc(C)c1S(=O)(=O)N1CCN(c2ccccc2)CC1 | -0.073
104 | Cc1cccc(NC(=O)CCC(=O)NCCO)c1 | 0.483
105 | CCn1c(SCC(=O)N2CCCC2)nc2c1c(=O)n(C)c(=O)n2C | -0.146
106 | Cc1nn(C)cc1NC(=O)CCSc1nc(-c2ccco2)cc(C(F)(F)F)n1 | -0.539
107 | O=C(CSc1nc2cc(Cl)ccc2s1)NC1CCCc2ccccc21 (stereo not given) | -0.115
108 | O=C(Nc1ccccc1)N(CCCN1CCOCC1)Cc1ccccc1F | 0.307
109 | O=C(CSc1nc2ccccc2[nH]1)c1ccc(Cl)s1 | 0.508
110 | O=c1oc2ccccc2cc1-c1nc2c(s1)CCCC2 | 0.248
